Measured values from PubChem BioAssay AID488969 (Vanderbilt High Throughput Screening Facility, 2010).
The full ranking holds about 110,000 compounds; the median of “z-score” is about -0.1, and the highest 2% start at about 2. Some of the results follow.

Biological target: Metabotropic glutamate receptor 8 (Rattus norvegicus) (UniProt P70579)
Experiment: rat mGluR8 modulators via GIRK flux, primary screen, cell-based, thallium flux, HTS (AID 488969)
Settings: HEK293 rat mGluR8, GIRK (G protein-gated inwardly rectifying potassium channel) thallium flux, FluoZin2; at 10 µM; stronger effect = higher value; submaximal glutamate (EC20) added with thallium

Chain of UniProt P70579 (P70579 whole entry, looked up): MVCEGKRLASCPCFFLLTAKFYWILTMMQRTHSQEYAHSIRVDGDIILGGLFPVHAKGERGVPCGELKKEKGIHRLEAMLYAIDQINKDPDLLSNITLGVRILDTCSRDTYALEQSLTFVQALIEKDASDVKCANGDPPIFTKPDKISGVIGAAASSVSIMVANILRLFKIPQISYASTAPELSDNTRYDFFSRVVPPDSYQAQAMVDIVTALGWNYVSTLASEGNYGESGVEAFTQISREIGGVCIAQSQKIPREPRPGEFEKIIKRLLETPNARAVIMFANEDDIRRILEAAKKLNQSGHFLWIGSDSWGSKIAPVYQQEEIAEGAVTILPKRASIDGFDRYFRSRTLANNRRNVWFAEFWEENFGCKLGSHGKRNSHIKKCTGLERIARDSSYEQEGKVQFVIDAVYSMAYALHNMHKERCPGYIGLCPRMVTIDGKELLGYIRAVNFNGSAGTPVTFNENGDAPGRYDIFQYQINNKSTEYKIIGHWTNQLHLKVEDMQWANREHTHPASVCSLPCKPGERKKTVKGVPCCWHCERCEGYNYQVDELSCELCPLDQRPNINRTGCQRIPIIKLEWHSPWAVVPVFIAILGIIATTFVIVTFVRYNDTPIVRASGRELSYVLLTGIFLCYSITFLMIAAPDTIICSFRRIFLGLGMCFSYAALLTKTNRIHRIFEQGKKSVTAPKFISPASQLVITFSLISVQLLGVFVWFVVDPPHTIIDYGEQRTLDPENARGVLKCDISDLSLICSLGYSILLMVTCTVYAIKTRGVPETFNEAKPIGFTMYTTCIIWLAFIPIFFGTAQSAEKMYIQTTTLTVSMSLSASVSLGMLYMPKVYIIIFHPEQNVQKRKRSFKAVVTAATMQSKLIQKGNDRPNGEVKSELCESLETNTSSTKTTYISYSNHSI

Row | Compound | z-score
1 | COc1ccc(/C=N/NC(=O)CN(C2=NS(=O)(=O)c3ccccc32)c2ccccc2)cc1OC | -0.34
2 | N/C(=N\OC(=O)c1ccco1)c1ccccc1 | 1.55
3 | Cc1ccc(C(=O)O)cc1S(=O)(=O)N1CCOCC1 | -0.267
4 | COCC(=O)N(C)c1nnc(-c2cnc(C)cn2)s1 | 1.04
5 | O=C(c1ccc(CS(=O)(=O)c2ccccc2)o1)N1CCOCC1 | -0.0612
6 | Cc1sc2ncnc(SCC(=O)c3ccc4c(c3)OCCO4)c2c1-c1ccccc1 | 0.289
7 | Cc1cc(C)cc(NS(=O)(=O)c2ccc(NC(=S)Nc3ccccc3)cc2)c1 | 9.02e-05
8 | CCOC(=O)N1CCN(C(=O)CN(Cc2ccccc2)S(C)(=O)=O)CC1 | -0.183
9 | CC1(C)CC(=O)C2=C(C1)OC(c1ccc(O)cc1)C(C#N)=C2N (stereo not given) | -1.2
10 | Cc1cc(C)nc(Nc2ncc(O)n2-c2ccccc2)n1 | -0.435
11 | C=C(C)CNC(=S)N/N=C/c1ccc(N2CCOCC2)cc1 | 0.134
12 | O=C(NN=C1CCCCCCCCCCC1)c1ccccc1F | 0.015
13 | CCC1(C(=O)OC)NC(c2ccco2)C2C(=O)N(c3ccccc3)C(=O)C21 (stereo not given) | -0.0661
14 | COc1ccc(OC)c(NC(=O)CSc2nc3ccccc3cc2Cc2ccccc2)c1 | 0.0675
15 | CCCCNC(=O)NCC(=O)Nc1ccc(F)c(F)c1 | 1.15
16 | O=C1CCCc2c1nn(-c1ccccc1)[n+]2[O-] | 0.353
17 | COc1ccc(C2C(C#N)=C(C)NC3=C2C(=O)CC(C)(C)C3)c(OC)c1 (stereo not given) | -0.368
18 | Cc1[nH][nH]c(=O)c1C(c1ccc(O)c([N+](=O)[O-])c1)c1c(C)[nH][nH]c1=O | -0.177
19 | Cc1ccc(S(=O)(=O)NCC(=O)N(CC(=O)NCC2CCCO2)C2CCCC2)cc1 (stereo not given) | 0.179
20 | CSCCC(NC(=O)c1ccccc1)c1nc(-c2ccccc2)no1 (stereo not given) | -0.416
21 | COCCn1cnnc1SCC(=O)Nc1cccc(S(=O)(=O)N2CCCCCC2)c1 | -0.541
22 | Cc1ccc(N(CC(=O)NCCSCc2ccco2)S(=O)(=O)c2ccc(C)cc2)cc1 | -0.457

Row | Compound | z-score
23 | COc1ccc(C(=O)CSc2cc(C)nc(SCC(=O)c3ccc(C)cc3)n2)cc1 | -0.124
24 | CC1=C(C(=O)OCC2CCCO2)C(c2ccccc2Cl)NC(=O)N1 (stereo not given) | -0.105
25 | CCCc1cc(=O)n2[nH]c(NCc3cccs3)nc2n1 | -0.866
26 | O=C(N/N=C/c1c[nH]c2ccccc12)c1ccn(Cc2ccc(Cl)cc2)n1 | -0.152
27 | Cc1ccc(S(=O)(=O)Nc2nc3n(n2)C(c2ccc(Cl)cc2)CC(=O)N3)cc1 (stereo not given) | -0.0522
28 | CN1CCN(/C=N/c2c(C#N)cnn2C)CC1 | 0.146
29 | CCSc1nc(N2CCCCC2)c2c(c1C#N)CCCC2 | -0.0717
30 | FC(F)(F)c1ccc(Cl)c(N/N=C/c2ccc(N3CCOCC3)s2)c1 | -0.185
31 | CN(C)CCCN(C(=O)c1ccc2c(c1)CCCC2)c1nc2ccc(Cl)cc2s1 | -0.225
32 | O=C(CCC(=O)Nc1ccccc1Cl)N/N=C1\CCCc2ccccc21 | -0.0173
33 | CCOC(=O)Cc1csc(NC(=O)COc2ccccc2OCC)n1 | 1.64
34 | Cc1cc(Nc2ccc3c(c2)OCCO3)n2ncnc2n1 | 0.494
35 | CCOC(=O)C1[C@H]2C(=O)N(C(C)c3ccc(OC)cc3)C[C@]23C=C[C@H]1O3 (stereo not given in full) | 0.209
36 | CCc1cc2ccccc2nc1SCC(=O)Nc1cc(C)on1 | 0.395
37 | Cc1cc(S(=O)(=O)NC2CCCCC2)ccc1OCC(=O)NCc1ccccn1 | 1.29
38 | CCC1CCc2c(sc(NC(=O)c3ccco3)c2C(N)=O)C1 (stereo not given) | 0.0395
39 | CN1CCN(c2ccccc2NC(=O)COc2ccccc2)CC1 | -0.109
40 | CCc1c(C)nc2ncnn2c1N1CCCC(C(=O)Nc2cc(F)ccc2C)C1 (stereo not given) | 0.411
41 | Cc1nc2cc(C(=O)OCC(=O)Nc3cccc(Cl)c3)ccc2n1-c1ccccc1 | 2.18
42 | CCCCNC(=O)Cn1cnc2c(cnn2-c2ccc(C)c(C)c2)c1=O | -1.17
43 | Cc1ccccc1C(=O)c1c[nH]c(C(=O)NCc2ccco2)c1 | -0.18
44 | CC(=O)c1cccc(NC(=O)c2csc(-n3nc(C)cc3C(F)(F)F)n2)c1 | 0.0985

Row | Compound | z-score
45 | CC(=O)c1cccc(NC(=O)NCc2ccco2)c1 | 0.286
46 | Cc1nnc(SCc2cccc3ccccc23)n(N)c1=O | 0.226
47 | O=C(c1ccc2c(c1)C(=O)N(Cc1ccco1)C2O)N1CCOCC1 (stereo not given) | -0.691
48 | Cc1ccc(CSc2nnc(CS(=O)Cc3ccc(Cl)cc3Cl)n2C)cc1 (stereo not given) | -0.571
49 | O=C(O)C1C2C=CC(O2)C1C(=O)NCc1ccccc1Br (stereo not given) | 0.381
50 | O=C(OCCN=C1NS(=O)(=O)c2ccccc21)c1ccccc1 | -0.108
51 | CCOC(=O)c1c(CC(C)C)csc1NC(=O)CCl | -0.191
52 | O=C(Cc1coc2cc3c(cc12)CCC3)NCC1(N2CCCCC2)CCCCC1 | -0.67
53 | COc1ccc(/C=N/NC(=S)Nc2ccccc2)cc1COc1ccccc1F | -0.0868
54 | COc1ccc(C(=O)N2CCN(C(=O)c3ccncc3)CC2)cc1 | 0.0368
55 | CC(=O)Oc1ccc2oc(=O)c3c(c2c1)CCCN3C(=O)CN1CCN(c2ncccn2)CC1 | -0.26
56 | Cc1cc2n(n1)C(c1ccco1)Nc1ccccc1-2 (stereo not given) | -0.00682
57 | Cc1cc(C(=O)COC(=O)CC2Sc3ccccc3NC2=O)c(C)n1-c1ccccc1 (stereo not given) | -0.175
58 | O=C(Nc1ccc2[nH]c3c(c2c1)CCCC3)c1ccco1 | -0.169
59 | CCc1ccc(C(C(=O)NC2CCCCC2)N(C(=O)CNC(=O)c2ccco2)c2cccnc2)cc1 (stereo not given) | -0.0971
60 | Cc1ccc(-c2nnc(SCC(=O)NC3CCCc4ccccc43)n2N)cc1 (stereo not given) | -0.297
61 | COc1ccc(S(=O)(=O)N(CC(=O)N/N=C/c2cccs2)c2ccc(C)cc2)cc1OC | -0.295
62 | Cc1ccc(C(=O)O/N=C(\N)c2ccc(Br)cc2)cc1 | 0.141
63 | O=C(C/C=N/OCc1c(Cl)cccc1Cl)c1cnc(-c2ccccc2)s1 | -0.12
64 | Cc1cc(Nc2cccc(Cl)n2)n(-c2ccccc2)n1 | -0.268
65 | CN1CCN(S(=O)(=O)c2ccc(NC(=S)NC(=O)C3CC3)cc2)CC1 | -0.268
66 | Cc1c(Br)c([N+](=O)[O-])nn1C(C)C(=O)Nc1nccs1 (stereo not given) | -0.0782

Row | Compound | z-score
67 | O=C(NCc1ccc2c(c1)OCO2)c1cnc2n(c1=O)CCS2 | -0.0299
68 | CCc1ccc(C(=O)N2CCCC2)s1 | 0.0133
69 | O=S(=O)(NCCc1csc(-c2ccc(C(F)(F)F)cc2)n1)c1ccc2c(c1)OCCO2 | 0.811
70 | COc1ccc(Nc2nc(Cl)nc(NCCO)n2)cc1 | -0.0207
71 | Cc1cc(/C=C2\SC(=Nc3ccc(F)cc3)NC2=O)c(C)n1-c1ccc(S(N)(=O)=O)cc1 | -0.288
72 | CCOC(=O)CSc1nnc(CSc2nc3sc4c(c3c(=O)[nH]2)CCCC4)n1-c1ccccc1 | -0.635
73 | CCOc1ccc(C(=O)NC(=S)NC2CCCC2)cc1[N+](=O)[O-] | 0.688
74 | COc1ccc(CCN2CC(C(=O)O)CC2=O)cc1OC (stereo not given) | -0.156
75 | CCCCOc1ccc(C(C)NC(=O)CCS(=O)(=O)Cc2ccc(C)cc2)cc1 (stereo not given) | -0.144
76 | Cc1[nH]c2ccc(-c3n[nH]c(=S)n3Cc3ccccc3)cc2c1C | -0.413
77 | CN1CCN(C(=O)c2ccc(-n3cccc3)cc2)CC1 | 0.268
78 | CC(C)OCCCNC(=O)c1cccc(NC(=O)c2ccccc2)c1 | 2.99
79 | CCn1nnnc1SCC(=O)N(C1CCCCC1)C1CCCCC1 | -0.262
80 | Cc1ccc(-n2nc(C)cc2NC(=O)c2ccc(C)s2)cc1 | -0.352
81 | Cn1c(=O)oc2cc(S(=O)(=O)N3CCC(C(=O)NCC4COc5ccccc5O4)CC3)ccc21 (stereo not given) | -0.644
82 | CCCCNC(=O)Nc1ccccc1C(=O)NCCC | 0.0978
83 | Cc1cccc(NC(=O)COc2ccc(Br)cc2C)n1 | -0.25
84 | Cc1cccc(-c2n[nH]c(=S)n2/N=C/c2ccc(C)o2)c1 | 0.433
85 | O=C(COc1cccc(-n2cnnn2)c1)Nc1ccccc1 | 0.099
86 | CCOc1cccc(OCCCCN2CCOCC2)c1 | -0.982
87 | CC12C=CC3(O1)C(C(=O)N(c1cccnc1)C3C(=O)NC1CCCCC1)C2C(=O)Nc1ccccc1 (stereo not given) | -0.319
88 | COCCSc1ccccc1C(=O)N1CCN(Cc2ccc3c(c2)OCO3)CC1 | 0.12

Row | Compound | z-score
89 | CC1=C(C(=O)c2ccccc2)C(c2cn(-c3ccccc3)nc2-c2ccc(Cl)cc2)NC(=S)N1 (stereo not given) | 0.0488
90 | O=C(Oc1cccnc1)c1cc(S(=O)(=O)N2CCOCC2)ccc1Cl | -0.361
91 | O=C(NC(Cc1c[nH]c2ccccc12)c1nnc2n1CCCCC2)c1ccc(Cl)cc1 (stereo not given) | -1.47
92 | O=C(c1ccccc1)N1CCN(Cc2ccccc2Br)CC1 | 0.504
93 | COc1ccc(C(=O)NNC(=O)C(NC(=O)c2ccccc2NC(=O)c2ccco2)C(C)C)cc1 (stereo not given) | -0.156
94 | N#C/C(=C\c1c(N2CCCCC2)nc2ccccn2c1=O)C(=O)NC1CCS(=O)(=O)C1 (stereo not given) | -0.276
95 | COc1ccc(CCNC(=O)c2cnc3scc(C)n3c2=O)cc1OC | 0.302
96 | COc1ccccc1NS(=O)(=O)c1ccc(OC)c(OC)c1 | -0.0629
97 | CCOc1ccc(NC(=O)CSCC(=O)O)cc1 | -0.178
98 | O=C(Nc1cccc([N+](=O)[O-])c1)c1[nH]ncc1Cl | -0.106
99 | COc1cc(CNCCO)ccc1OCC(=O)Nc1ccc(Br)cc1 | 1.47
100 | CC(C)NCc1c(O)c(Br)cc2oc3c(c12)CCCC3 | -2.03
101 | Cc1ccc(N=C/C(C(=O)C(F)(F)F)=C(\O)c2cccs2)cc1 | -0.28
102 | C=CCn1c(SCc2cccc(C#N)c2)nnc1-c1ccccc1O | 0.378
103 | O=C(CCc1ccc(S(=O)(=O)N2CCOCC2)cc1)Nc1ccc2ccccc2c1 | -0.0429
104 | O=C(Cc1ccc(Br)cc1)N1CCCCCC1 | 0.133
105 | O=C1c2ccccc2CCC12N=NCC2c1ccccc1 (stereo not given) | -0.0723
106 | C=CCn1c(SCC(=O)c2cc(C)n(CC3CCCO3)c2C)nnc1-c1ccccc1 (stereo not given) | -0.292
107 | CC1(c2ccncc2)Nc2ccccc2-c2nc3ccccc3n21 (stereo not given) | -0.0156
108 | CC1CCCN(S(=O)(=O)c2coc(C(N)=O)c2)C1 (stereo not given) | 0.247
109 | CC(/C=C/c1ccccc1)=N/NC(=O)c1cc([N+](=O)[O-])cc([N+](=O)[O-])c1 | 1.41
110 | CCOC(=O)c1cnc(-n2nc(C)cc2C)nc1Nc1ccc(OC)cc1 | -0.0946
